T1: UNK ZnF1-6 (called full-length) (human, UniProt Q9C0B0 30-357)
T1 sequence: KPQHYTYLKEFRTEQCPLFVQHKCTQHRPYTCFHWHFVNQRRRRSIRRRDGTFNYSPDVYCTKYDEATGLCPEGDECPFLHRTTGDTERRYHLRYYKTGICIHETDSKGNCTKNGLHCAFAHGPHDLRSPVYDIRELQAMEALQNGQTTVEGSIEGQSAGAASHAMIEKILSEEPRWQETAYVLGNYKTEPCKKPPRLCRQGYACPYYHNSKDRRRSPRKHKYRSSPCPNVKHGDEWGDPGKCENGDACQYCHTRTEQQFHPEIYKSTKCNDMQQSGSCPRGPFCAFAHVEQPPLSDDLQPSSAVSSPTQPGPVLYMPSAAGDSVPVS

B1: chr16:8795179:8795951:-|three_prime_utr|ENSG00000184857|control|control|control (ssRNA)
RNA: GGGAGUUCUACAGUCCGACGAUCCCUGGGAACAUGUGUUUUGUGGUGAAUAAAUUCACAAGGCAAGAGCUGGUGUACAGGUUUAGGAAAAAGGCUCUAAGCAAGUUCUUACAGCACUUGUUUGUGACAUUCAGUCAGAUAAUGCAACAGAGGAUUGAGCAUCA
B2: ENSG00000198589:be:win_6901|CDS|ENSG00000198589|bound_else_gene|NA|bound_elsewhere_windowed (ssRNA)
RNA: GGGAGUUCUACAGUCCGACGAUCCUUGCAUGGCUGCUAAGAAUAGAACCCUUUACAACUUAUUUCCUAAAUUUGCAAGGAGGCAAAUUUGAUCAUGCAGAUCGAACUUUUUCAUCAAUUUCCAGAGCUUGGCGAAACAGUCAGCAACAGAGGAUUGAGCAUCA
B3: ENSG00000070961:be:win_4751|3pUTR|ENSG00000070961|bound_else_gene|NA|bound_elsewhere_windowed (ssRNA)
RNA: GGGAGUUCUACAGUCCGACGAUCGAAAAAGGUUAAUAAGUAGAAGCAUACAUGUUUUCCUUUUGUUUUUGAAACUUGUUUGUAAACAUAAAUAAAUAUGCCCUUUUAUUAAAUAAAUUCAUGGCAAUGUUUUUUUAAAAGACACAACAGAGGAUUGAGCAUCA
B4: ENSG00000107863:be:win_301|CDS|ENSG00000107863|bound_else_gene|NA|bound_elsewhere_windowed (ssRNA)
RNA: GGGAGUUCUACAGUCCGACGAUCACCAUAUUUGUUAAGCAAGUUAAAGAAGGAGGACCUGCUUUUGAAGCUGGAUUAUGUACAGGUGACCGAAUUAUAAAAGUCAAUGGAGAAAGUGUUAUUGGCAAAACCUAUUCCCAAGUACAACAGAGGAUUGAGCAUCA
B5: chr17:30468017:30468118:+|3pUTR|ENSG00000108582|unk|FALSE|unique (ssRNA)
RNA: GGGAGUUCUACAGUCCGACGAUCGCUAAAAUUUUGGGGAUAUGAUUUGGGUCUUUGAUUAAUGUCAGCUGAACUUGGAUUUCUAGUUCAUGAAGAAAUCUCUCCCAAUACCCAUUUAUCCUAUUUUUAGCAAUAAUUCGUUAACAACAGAGGAUUGAGCAUCA
B6: chr8:93923365:93923466:+|CDS|ENSG00000164951|msi1|total|mutant (ssRNA)
RNA: GGGAGUUCUACAGUCCGACGAUCGCAGGAUGUGGUCCGGAUUGUGGGUGAGUACCUAACUGGCAUGCAUCACCAACAGCCAACCGCUGUUGGUGGCUACAAGGUGACUCUGGGACAGAUGCAUGGCCUUUUAACAGAAAGGAGCAACAGAGGAUUGAGCAUCA
B7: chr12:48147896:48148005:-|3pUTR|ENSG00000177981|unk|FALSE|unique (ssRNA)
RNA: GGGAGUUCUACAGUCCGACGAUCCUGCUUUAGUGAACGAUACUCUUUCAUUUUUCUAAAUUAGAUCAAGUUGUUAUUGAUUUUAGAUGACUUGUAUGCAAAUUUGAAAAACUUUUUUUUUUAAAGCUGAUUGGGAACUACAAACAACAGAGGAUUGAGCAUCA
B8: chr1:45003092:45003193:-|3pUTR|ENSG00000126107|msi1|total|mutant (ssRNA)
RNA: GGGAGUUCUACAGUCCGACGAUCGGAAUCUUCCACAAGCCCAGCACAAGCUGCCAGGCCUGAGCUACUUGAAGGGGGCCAUCCCGGUCCCCAACCCAUGGACUUUGCCUCCAUUUUCAGCUCCGCCUUUUUUCUCCUAUUUUCCAACAGAGGAUUGAGCAUCA
B9: chrX:101163201:101163302:+|3pUTR|ENSG00000102384|unk|total|mutant (ssRNA)
RNA: GGGAGUUCUACAGUCCGACGAUCUCAUCAUCAGGCUCUGCGUUCUACCAAAUUGUAUGUAAAAAGACACAUCUGUUUUGUGGCCGGAUUUUUUCACAUUUUUGGGUACUAUGAGCUGCAUUGAUGGAAGACAGCAGGCAAUAUCAACAGAGGAUUGAGCAUCA
B10: chr11:108172639:108172748:-|CDS|ENSG00000149308|unk|total|mutant (ssRNA)
RNA: GGGAGUUCUACAGUCCGACGAUCGUUAUCAUCCGUGAUGAUCCAUUUGUUUCCUCAGAUACUGAACUUACCAGUGCUGUUUCCCGUAUUAAUGGAGAAAACCUGCCAACUAUAAUCUUGUCUUCUCCUACUAAAUCACCUACUCAACAGAGGAUUGAGCAUCA
B11: chr8:142872356:142874372:-|three_prime_utr|ENSG00000160882|control|control|control (ssRNA)
RNA: GGGAGUUCUACAGUCCGACGAUCUUCCUGAGUCACCCCUCUGUCUAACCAGCCCCAGCACAAAUGGAACUCCCGAGGGCCUCUAGGACCAGGGUUUGCCAGGCUAAGCAGCAAUGCCAGGGCACAGCUGGGGAAGAUCUUGCUCAACAGAGGAUUGAGCAUCA
B12: chr5:60870179:60870280:-|3pUTR|ENSG00000049167|unk|total|mutant (ssRNA)
RNA: GGGAGUUCUACAGUCCGACGAUCUCUCCUUGCCCUUUUUGUUUUGUUUUGUUUCAAUUCUCCGAACUGCCGUUGGCAUGCCGCCGGUGCUUAAUAAUUACUUGUUUUGUUGUUUCUGUCCUAUACUUUGAGAGUUUGUGUUUGCAACAGAGGAUUGAGCAUCA
B13: chr1:204551843:204551944:+|3pUTR|ENSG00000198625|unk|FALSE|unique (ssRNA)
RNA: GGGAGUUCUACAGUCCGACGAUCAGUGUUCCUGGAAUCUCUAUGCAAGUUUUAUACAGAACAUACUUUUGGAAUCCUUGCCCUAGACAGGGGUGUCCAAUCUUUUGGCUUCCCUGGUCCACAAUGGAAGAAGAAUUGUCUUGGCAACAGAGGAUUGAGCAUCA
B14: chr9:74999729:74999870:-|CDS|ENSG00000156017|control|control|control (ssRNA)
RNA: GGGAGUUCUACAGUCCGACGAUCAGUAAAUAUUCUGGUACCUGGUGCUGGACUAGGAAGACUGGCCUGGGAAAUAGCUAUGCUAGGUUAUGCUUGUCAAGGAAAUGAAUGGAGUUUUUUUAUGCUCUUUUCUUCCAACUUUGUCAACAGAGGAUUGAGCAUCA
B15: chr3:44647099:44647200:+|3pUTR|ENSG00000186448|msi1|total|mutant (ssRNA)
RNA: GGGAGUUCUACAGUCCGACGAUCAUUUGUAUGUAAACUACAUAAAGAACUUUCCAAAUUUAACAGUAAUAAGUAAAUACAAUCCGAAAAUAAGCAAAAGACAGACAUUUCACUGAAGUACCGACCGCAAAUAAGCAAAUGAAACAACAGAGGAUUGAGCAUCA
B16: chr10:110133424:110133536:+|CDS|ENSG00000148700|unk|FALSE|bound_elsewhere (ssRNA)
RNA: GGGAGUUCUACAGUCCGACGAUCGCAUGAUGUUGAAGAUGAGCUUGCUAAGCGAGUGAGUAGGUUAAGCACAAGUACAACCAUAGAAAACAUCGAGAUUACUAUUAAGUCUCCAGAGAAAAUCGAAGAAGUCCUGUCACCUGACAACAGAGGAUUGAGCAUCA
B17: chr7:76328962:76329048:-|3pUTR|ENSG00000170027|msi1_unk|total|mutant (ssRNA)
RNA: GGGAGUUCUACAGUCCGACGAUCACCUGAGGUCUCAUUCAUCCUUAUGGUUCCGGCCUUGCCAGUUUUCCGAAGUCUCUGAUCCGUUGACAGUAUUAACACUAAAUUGCAGUUUACAGUAUUUCUACAUUACAGCCAUAUGUACAACAGAGGAUUGAGCAUCA
B18: chr10:100209595:100209696:-|CDS|ENSG00000213341|unk|total|mutant (ssRNA)
RNA: GGGAGUUCUACAGUCCGACGAUCACUUCUUUCAGAGACAGGAAUUUCUCUGGAUCCUCGGAAACCAGCCUCUCAAUGUGUUCCCGAUGGAGUUGUAAGAAAAUUAAUUAUAAUAUCCCCCGAGUAUGUGAAAUCCCGAGGGAUCAACAGAGGAUUGAGCAUCA
B19: chr7:122320167:122320338:-|CDS|ENSG00000081803|control|control|control (ssRNA)
RNA: GGGAGUUCUACAGUCCGACGAUCUGUGUUGGAAGGAACACUGAACAGUAAGACUUAUGAUACUGUGCACAGACGUUUAACAGUAGAGGAGGCCACAGCCUCUGUUUCAGAAGGAGGAGGACUUCAGGGCAUUACUAUGAAAGACAACAGAGGAUUGAGCAUCA
B20: ENSG00000119401:stop:overlap|stop_codon|ENSG00000119401|stop_codon|NA|stop_codon (ssRNA)
RNA: GGGAGUUCUACAGUCCGACGAUCACUGUUGGGAUCAUUGCAUCAAGAUCUACAGCUACCAUCUGAGAAGAUAUUCCACCCCAUAGGGGAUGAGAAAUUAUCAGUUUCUUCUGCUCCCAAGCCAACUUCCCUUCCCUUAGUUCUCAACAGAGGAUUGAGCAUCA
B21: chr12:105021166:105021267:-|3pUTR|ENSG00000136010|unk|FALSE|unique (ssRNA)
RNA: GGGAGUUCUACAGUCCGACGAUCAGUCAGACAGUGUCACUUCACUCGUCUGUUUAAAACCUUUCAAUGGCCCCCAUUUCACGUAGACCAAAGUCCAACGUAUUUACCUGGCCUACUGAUCUUGCUCCUAGCUACCUCUGACCUCAACAGAGGAUUGAGCAUCA
B22: chr15:63775065:63775180:-|CDS|ENSG00000103657|unk|total|mutant (ssRNA)
RNA: GGGAGUUCUACAGUCCGACGAUCUGGUUCAGCAGAUGUCCAUUCUGUCCGUGAACGCCCCCGGUCAAGCACUGAUGCACUUACCGAAAUGGGUGUUCGAACUGGUCUAAGUUUAUUAUUUGCGCUUCUAAGACAAAGUUGGAUCAACAGAGGAUUGAGCAUCA

The list shows a part of the results.

The target of this assay is T1, UNK ZnF1-6 (called full-length). In words: nsRBNS (natural sequence RNA bind-n-seq); RBNS binding buffer (assumed for nsRBNS): 25 mM Tris pH 7.5, 150 mM KCl, 3 mM MgCl2, 0.01% Triton X-100, 500 ug/ml BSA, 20 U/ml SUPERase-In, 4 C; UNK is unkempt and MSI1 is Musashi-1; names of the RNAs are library labels; protein concentration not given here; high values mean tight binding.
B1 returned a binding signal of 0.531 enrichment R.

B2: the binding signal stood at 0.684 enrichment R. Under B3 stands 0.52 enrichment R. For B4 the value was 0.314 enrichment R; for B5, 0.512 enrichment R; for B6, 0.603 enrichment R. Under B7 stands 0.7 enrichment R; under B8, 0.589 enrichment R; under B9, 0.298 enrichment R. With B10, the binding signal amounted to 0.361 enrichment R.

Molecule B11 gave a binding signal of 1.02 enrichment R. B12: the binding signal came out at 1.02 enrichment R.

B13: the binding signal stood at 0.433 enrichment R. On to B14, for which the binding signal was 0.736 enrichment R. For B15 the value was 1.19 enrichment R; for B16, 0.533 enrichment R. For B17 the value was 0.365 enrichment R. For B18 the value was 0.684 enrichment R. B19: the binding signal stood at 0.854 enrichment R. With B20, the binding signal was found to be 0.595 enrichment R.

Take B21: the binding signal came out at 0.458 enrichment R. B22: the binding signal came to 0.473 enrichment R.

Source of the values: paper PMC12136788.
